According to PMC4336329 (PLoS ONE, 2015):
Screen size: about 310,000 compounds; about 2,200 (0.71%) showed an effect of 50% or more. Effects have a minus sign here. The list shows a part of the results.

Each compound was assayed against human ether-à-go-go-related gene (hERG) potassium channel (human, UniProt Q12809) (assay: primary screen, population patch clamp on CHO cells stably expressing hERG).
Chain of human ether-à-go-go-related gene (hERG) potassium channel (Q12809 whole entry, looked up): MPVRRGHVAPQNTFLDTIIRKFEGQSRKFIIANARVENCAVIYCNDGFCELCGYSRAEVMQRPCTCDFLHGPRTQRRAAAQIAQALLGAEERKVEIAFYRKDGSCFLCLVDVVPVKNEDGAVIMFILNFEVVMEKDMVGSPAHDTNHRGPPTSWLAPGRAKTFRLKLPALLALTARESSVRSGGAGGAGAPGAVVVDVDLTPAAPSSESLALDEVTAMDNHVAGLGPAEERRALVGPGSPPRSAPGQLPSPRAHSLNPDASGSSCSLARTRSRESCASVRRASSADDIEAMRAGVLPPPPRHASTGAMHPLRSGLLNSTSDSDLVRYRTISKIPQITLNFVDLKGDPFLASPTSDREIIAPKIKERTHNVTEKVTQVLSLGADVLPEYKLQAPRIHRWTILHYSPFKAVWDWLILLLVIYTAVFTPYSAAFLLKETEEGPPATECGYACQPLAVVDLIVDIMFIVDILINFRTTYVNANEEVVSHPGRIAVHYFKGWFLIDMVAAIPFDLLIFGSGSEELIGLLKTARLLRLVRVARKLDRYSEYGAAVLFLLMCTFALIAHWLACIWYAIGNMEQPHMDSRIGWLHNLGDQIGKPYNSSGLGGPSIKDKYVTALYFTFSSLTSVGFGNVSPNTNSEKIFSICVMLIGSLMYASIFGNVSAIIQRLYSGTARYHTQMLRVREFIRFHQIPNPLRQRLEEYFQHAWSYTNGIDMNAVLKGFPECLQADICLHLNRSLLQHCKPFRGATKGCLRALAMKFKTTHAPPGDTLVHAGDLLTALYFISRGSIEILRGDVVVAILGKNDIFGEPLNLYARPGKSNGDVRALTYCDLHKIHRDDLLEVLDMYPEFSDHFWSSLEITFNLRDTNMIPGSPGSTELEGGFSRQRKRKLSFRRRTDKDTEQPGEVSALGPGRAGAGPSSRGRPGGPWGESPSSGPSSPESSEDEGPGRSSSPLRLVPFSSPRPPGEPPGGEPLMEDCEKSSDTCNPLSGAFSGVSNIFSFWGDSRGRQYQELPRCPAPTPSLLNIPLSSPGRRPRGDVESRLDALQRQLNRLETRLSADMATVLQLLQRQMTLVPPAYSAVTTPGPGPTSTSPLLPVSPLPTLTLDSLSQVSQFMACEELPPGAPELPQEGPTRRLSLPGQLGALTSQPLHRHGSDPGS
`N#CC(C(=O)NCCc1ccccc1)c1nc2ccccc2nc1N1CCOCC1` (centres unmarked) was tested, and the “hERG current change (%, negative = inhibition) at 1uM” value was 6.05%. With `CC1(C)CC(=O)C2=C(C1)OC1=C(C(=O)CC(C)(C)C1)C2c1ccccc1` the “hERG current change (%, negative = inhibition) at 1uM” value was 5.97%. In the case of `O=C(Nc1ccccc1)/C(=C\c1cccs1)NC(=O)c1ccccc1`, the “hERG current change (%, negative = inhibition) at 1uM” value is reported as 14.9%. `COc1ccc(N(CC(=O)NCc2ccc(F)cc2)C(=O)CCC(=O)Nc2nccs2)cc1` was tested, and the “hERG current change (%, negative = inhibition) at 1uM” value was 14.5%. `Cc1c(C(=O)O)cc(-c2ccccc2)n1Cc1ccccc1` was tested, and the “hERG current change (%, negative = inhibition) at 1uM” value was 14.8%. In the case of `COc1ccccc1C(=O)Nc1cc2c(cc1C(=O)O)OCCCO2`, the “hERG current change (%, negative = inhibition) at 1uM” value is reported as 4.66%. In the case of `Cn1c(=O)n(C)c2cc(NC(=O)CCl)ccc21`, the “hERG current change (%, negative = inhibition) at 1uM” value is reported as 1.81%. `CCOc1cc(S(=O)(=O)NCCc2ccccc2C)c(OCC)cc1-n1cnnn1` was tested, and the “hERG current change (%, negative = inhibition) at 1uM” value was -5.54%. With `COc1c(C)cc(Br)cc1C(=O)NC(=S)NCc1ccco1` the “hERG current change (%, negative = inhibition) at 1uM” value was 7.65%. `COC(=O)c1cc(NC(=O)c2c(C)noc2C)ccc1N1CCOCC1` was tested, and the “hERG current change (%, negative = inhibition) at 1uM” value was 11.9%. For `Cc1cc(C)n(C(=O)c2c([N+](=O)[O-])cnn2C)n1`, the “hERG current change (%, negative = inhibition) at 1uM” value was 11.1%. For `O=C(CNC(=O)c1nc[nH]c1C(=O)N1CCc2ccccc2C1)OCc1ccccc1`, the “hERG current change (%, negative = inhibition) at 1uM” value was 9.92%. `COc1cccc(CC(=O)N2CCC(n3nccc3NC(=O)C3CC3)CC2)c1` was tested, and the “hERG current change (%, negative = inhibition) at 1uM” value was -3.01%. In the case of `N#C/C(=C\c1ccc(O)c(O)c1)C(=O)NCCc1ccccc1`, the “hERG current change (%, negative = inhibition) at 1uM” value is reported as 10.8%. `Cc1cccc(OCC(=O)Nc2ccc3c(c2)OCCO3)c1` was tested, and the “hERG current change (%, negative = inhibition) at 1uM” value was 18%. With `CSC1=NCCN1C(=O)c1ccc(S(=O)(=O)N2CCOCC2)cc1` the “hERG current change (%, negative = inhibition) at 1uM” value was 14.5%. For `Cc1cccc(OC(=O)C2C(c3ccccc3)C(C(=O)O)C2c2ccccc2)c1` (centres unmarked), the “hERG current change (%, negative = inhibition) at 1uM” value was 6.14%. In the case of `COc1ccccc1NC(=O)CSc1nnnn1-c1ccc2c(c1)OCO2`, the “hERG current change (%, negative = inhibition) at 1uM” value is reported as 9.46%. In the case of `CCOc1cc(/C=N/NC(=O)C(=O)NCc2ccc3c(c2)OCO3)ccc1OCC(=O)N1CCOCC1`, the “hERG current change (%, negative = inhibition) at 1uM” value is reported as 11.3%. `CC(C)CNC(=O)COC(=O)c1ccccc1SCC(=O)NCC(C)C` was tested, and the “hERG current change (%, negative = inhibition) at 1uM” value was 8.48%. With `Cn1cccc1CC(=O)N/N=C/C=C/c1ccco1` the “hERG current change (%, negative = inhibition) at 1uM” value was 14.8%. `CCCN(CCC)CC(O)Cn1c2ccccc2c2ccccc21` (centres unmarked) was tested, and the “hERG current change (%, negative = inhibition) at 1uM” value was 12.5%. In the case of `Cc1ccc(NS(=O)(=O)c2ccc3c(c2)NC(=O)C(C)C(=O)N3)c(Br)c1` (centres unmarked), the “hERG current change (%, negative = inhibition) at 1uM” value is reported as 12.1%. In the case of `NC(=O)C1CCCN(C(=O)c2ccc3c(c2)NC(=O)CS3)C1` (centres unmarked), the “hERG current change (%, negative = inhibition) at 1uM” value is reported as 11.3%. With `C/C(=N\NS(=O)(=O)c1ccccc1)c1ccccc1` the “hERG current change (%, negative = inhibition) at 1uM” value was 17.2%. `OC(CSc1ccc(F)cc1)CN1CCN(c2ccccc2)CC1` (centres unmarked) was tested, and the “hERG current change (%, negative = inhibition) at 1uM” value was 7.43%. With `CCn1c(CSc2nncn2-c2ccc(OC)cc2)nc2cc(S(=O)(=O)N(C)C)ccc21` the “hERG current change (%, negative = inhibition) at 1uM” value was -14.8%. In the case of `CCn1ccnc1CN(C)Cc1nc(CCC(C)C)no1`, the “hERG current change (%, negative = inhibition) at 1uM” value is reported as 11.8%. For `COC(=O)COc1ccc(C2Nc3c(Cl)ccc(C(=O)O)c3C3C=CCC32)cc1` (centres unmarked), the “hERG current change (%, negative = inhibition) at 1uM” value was 5.62%. `CNc1snc(C)c1C(=O)OC(C)C(=O)c1ccc(F)cc1` (centres unmarked) was tested, and the “hERG current change (%, negative = inhibition) at 1uM” value was 12.1%. In the case of `Cc1ccc2[nH]c(=O)c(C(c3nnnn3C(C)(C)C)N3CCN(C(=O)c4ccco4)CC3)cc2c1` (centres unmarked), the “hERG current change (%, negative = inhibition) at 1uM” value is reported as -3.38%. In the case of `COc1ccc(C(=O)NNC(=S)Nc2ccccc2)cc1`, the “hERG current change (%, negative = inhibition) at 1uM” value is reported as 10.5%. `Cc1nn(-c2ccccc2)c2sc(C(=O)NC3CCCCC3)cc12` was tested, and the “hERG current change (%, negative = inhibition) at 1uM” value was 5.33%. With `CC(C)(C)NC(=O)CCN(/N=C/c1ccc([N+](=O)[O-])o1)C1=NS(=O)(=O)c2ccccc21` the “hERG current change (%, negative = inhibition) at 1uM” value was 0.495%. `CC(=O)Cn1ncc(N2CCOCC2)c(Br)c1=O` was tested, and the “hERG current change (%, negative = inhibition) at 1uM” value was 13%. For `O=c1[nH]c(-c2ccccc2)nc(-c2ccccc2)c1Cl`, the “hERG current change (%, negative = inhibition) at 1uM” value was 8.49%. `CCn1cc(SCC(=O)NC2CCCC2)c2ccccc21` was tested, and the “hERG current change (%, negative = inhibition) at 1uM” value was 8.83%. With `Cc1cc(-c2cccs2)c2c(N)c(C(=O)c3ccc4c(c3)OCO4)sc2n1` the “hERG current change (%, negative = inhibition) at 1uM” value was 8.51%. In the case of `COc1cc(/C=N/NC(=O)c2ccncc2)ccc1OCc1cnc(Cl)s1`, the “hERG current change (%, negative = inhibition) at 1uM” value is reported as 18.7%. With `CCCn1c(=O)c2c(c3ccccc31)OCC(=O)N2` the “hERG current change (%, negative = inhibition) at 1uM” value was 8.11%. `COc1ccc(Cn2c(=O)[nH]c3cc(C(=O)N4CCN(c5ccc(C(C)=O)cc5)CC4)ccc3c2=O)cc1` was tested, and the “hERG current change (%, negative = inhibition) at 1uM” value was 15.2%. In the case of `COc1ccc(CNC(=O)C2CCC(CNS(=O)(=O)c3cccc4cccnc34)CC2)cc1` (centres unmarked), the “hERG current change (%, negative = inhibition) at 1uM” value is reported as 16.6%. For `Cc1ccc(CN2CCN(c3cccc4[nH]ccc34)CC2)cc1`, the “hERG current change (%, negative = inhibition) at 1uM” value was -12.9%. For `O=C(OCC(=O)N1CCOCC1)c1ccc2ccccc2c1`, the “hERG current change (%, negative = inhibition) at 1uM” value was 1.46%.
